{"source": "PubChem BioAssay AID686978", "about": "(National Center for Advancing Translational Sciences (NCATS), 2013)", "note": "The whole screen tested about 420,000 compounds, of which about 64,000 (15%) were called active. Inconclusive results, whose numbers are uncertain, are shown with a selection of clear calls. The call rests on the fitted dose curve; in most records, active means well fitted inhibition curve with a large enough effect; inconclusive means small, poorly fitted or top-dose-only effect; inactive means flat fitted curve, though single readings scatter. No potency is given beside an inconclusive call; the fits are too rough. On the % scale 0 is the no-effect control and ±100 the full control effect; potency means the concentration at half of the fitted maximal effect; tags describe the fitted curve by direction and shape.", "data": [{"assay": "qHTS for Inhibitors of human tyrosyl-DNA phosphodiesterase 1 (TDP1): qHTS in cells in absence of CPT; further: nearly all actives have a fitted effect of over 55% in size", "conditions": "DT40 Tdp1-/- hTDP1 cells, no CPT, ATP luminescence, 48 h; activity change, negative = growth inhibition: at 46.2 µM (top of the series)", "summary_of_the_method": "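Chicken DT40 Tdp1-/- cells complemented with human TDP1, screened without camptothecin (DMSO vehicle only), 400 cells/well. Compounds pin-transferred, cells incubated at 37 °C for at least 48 hr. Growth read as ATP-dependent luminescence (CellTiter-Glo, 30 min at RT).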", "values": [{"smiles": "COc1ccc(C(=O)COC(=O)c2cc(S(=O)(=O)NCc3ccccc3)ccc2O)cc1", "Potency": "inconclusive [inhibitor, partial curve]"}, {"smiles": "Cc1cc(C)c(C#N)c(N2CCN(c3ccccc3)CC2)n1", "activity change, negative = growth inhibition": "inactive: 0.73%"}, {"smiles": "COc1cccc(/C=N/n2c(-c3cccs3)n[nH]c2=S)c1", "activity change, negative = growth inhibition": "inactive: -17.7%"}, {"smiles": "Cc1cc(C)cc(NC(=O)Cn2c(=O)n(CC(=O)NCCc3ccccc3)c(=O)c3ccccc32)c1", "activity change, negative = growth inhibition": "inactive: -20.3%"}, {"smiles": "CC(=O)C(=Cc1ccc(-c2ccccc2)cc1)C(=O)c1ccccc1", "Potency": "inconclusive [inhibitor, single point]"}, {"smiles": "COc1cc(OC)c(C(=O)Oc2ccc3c(c2)OCO3)cc1OC", "activity change, negative = growth inhibition": "inactive: -9.41%"}, {"smiles": "Cc1cccc(Nc2cc(C)nc3ccccc23)c1", "Potency": "inconclusive [inhibitor, single point]"}, {"smiles": "O=C(CNC(=O)[C@@H]1Cc2ccccc2CN1)Nc1ccc2c(c1)OCCO2", "activity change, negative = growth inhibition": "inactive: 20.3%"}, {"smiles": "CN(CCOCCOc1ccc(F)cc1)Cc1ccccc1", "Potency": "inconclusive [inhibitor, partial curve, poor fit]"}, {"smiles": "Cc1ccc(C(=O)c2cn(Cc3c(F)cccc3Cl)c3nc(C)ccc3c2=O)cc1", "Potency": "inconclusive [inhibitor, full curve, poor fit]"}, {"smiles": "O=C(COC(=O)CCCN=C1NS(=O)(=O)c2ccccc21)NNC(=O)c1ccccc1", "activity change, negative = growth inhibition": "inactive: -6.36%"}, {"smiles": "C[C@@H]1CN([C@@H](C)CO)C(=O)c2cc(NC(=O)C3CCCCC3)ccc2O[C@@H](C)CCCCO[C@@H]1CN(C)Cc1ccncc1", "activity change, negative = growth inhibition": "inactive: -21.2%"}, {"smiles": "Cc1ccccc1C(=O)N1N=C(c2ccc(NS(C)(=O)=O)cc2)CC1c1cccs1", "note": "(stereo not given)", "Potency": "inconclusive [inhibitor, partial curve]"}, {"smiles": "COc1cccc(NC(=O)c2ccc3nsnc3c2)c1", "Potency": "inconclusive [inhibitor, single point]"}, {"smiles": "Cc1ccc(NC(=O)CSCC(=O)NCCc2ccccn2)c(C)c1", "activity change, negative = growth inhibition": "inactive: 6.41%"}, {"smiles": "COC(=O)c1cccn(CC(=O)c2ccc(Cl)cc2Cl)c1=O", "activity change, negative = growth inhibition": "inactive: -20.3%"}, {"smiles": "O=C(c1ccc(S(=O)(=O)N2CCCC2)cc1)N1CCCc2ccccc21", "Potency": "inconclusive [inhibitor, single point]"}, {"smiles": "Cc1ccc(S(=O)(=O)N2CCN(C(=O)Cc3ccc4c(c3)OCCO4)CC2)cc1C", "activity change, negative = growth inhibition": "inconclusive: -33.4% [inhibitor]"}, {"smiles": "Cc1ccc2c(CN(Cc3ccccc3)Cc3ccccc3)cc(=O)oc2c1", "Potency": "inconclusive [inhibitor, single point]"}, {"smiles": "Cc1ccccc1CN(C)CC(=O)Nc1ccccc1-c1ccccc1", "Potency": "inconclusive [inhibitor, single point]"}, {"smiles": "CCC(C(=O)NCc1ccc2c(c1)CCN2C(=O)c1ccc(F)cc1)c1ccccc1", "note": "(stereo not given)", "activity change, negative = growth inhibition": "inactive: 0.854%"}, {"smiles": "Cc1ccc(SC[C@H](c2ccccc2)N2CCN(CCc3ccccc3)CCC2=O)cc1", "Potency": "active: 20.6 µM"}, {"smiles": "CCOc1ccccc1NC(=O)NCc1ccco1", "activity change, negative = growth inhibition": "inactive: 0.532%"}, {"smiles": "CC(=NNc1nc2ccccc2s1)c1ccncn1", "Potency": "active: 0.146 µM"}, {"smiles": "CC1Cc2nc(SCC(=O)Nc3ccc4c(c3)OCCO4)n(C)c(=O)c2S1", "note": "(stereo not given)", "Potency": "inconclusive [inhibitor, partial curve]"}, {"smiles": "COc1ccccc1NC(=O)NC1CCCCCCC1", "activity change, negative = growth inhibition": "inactive: -4.12%"}, {"smiles": "CCC(CO)n1c(SCc2cc(=O)oc3cc(C)ccc23)nc2ccccc2c1=O", "note": "(stereo not given)", "Potency": "inconclusive [inhibitor, single point]"}, {"smiles": "Cc1cc(C)c2c3c(oc2n1)C(=O)N(c1cccc(Cl)c1)CC(=O)N3", "Potency": "inconclusive [inhibitor, single point]"}, {"smiles": "CCc1ccc(C2CC(=O)c3c([nH]c(C(=O)OCc4ccc(C)cc4)c3C)C2)cc1", "note": "(stereo not given)", "Potency": "active: 7.31 µM"}, {"smiles": "COc1ccc(Cl)cc1NS(=O)(=O)c1ccc2c(c1)NC(=O)CCS2", "Potency": "active: 4.61 µM"}, {"smiles": "O=C(NCCCc1ccccc1)c1ccc([N+](=O)[O-])cc1Cl", "Potency": "inconclusive [inhibitor, single point]"}, {"smiles": "CCc1nc2ccc(C(=O)NCCN3CCOCC3)cn2c1N(CC)CCOC", "Potency": "inconclusive [inhibitor, partial curve, poor fit]"}, {"smiles": "COC(=O)c1cc(Cc2ccc(N)c(C(=O)OC)c2)ccc1N", "Potency": "inconclusive [inhibitor, single point]"}, {"smiles": "Cc1noc(-c2ccc(-c3noc(-c4ccccc4)n3)cc2)n1", "activity change, negative = growth inhibition": "inactive: 0.809%"}, {"smiles": "Cc1cccc(NC(=S)N(Cc2cccs2)Cc2cc3cc(C)ccc3[nH]c2=O)c1", "Potency": "active: 20.6 µM"}, {"smiles": "O=C(NC(=O)c1cc([N+](=O)[O-])ccc1Cl)C1=C(N2CCCC2)COC1=O", "activity change, negative = growth inhibition": "inactive: -18.1%"}, {"smiles": "COc1ccccc1NC(=O)Nc1ccc(C(N)=O)cc1", "Potency": "inconclusive [inhibitor, single point]"}, {"smiles": "CCc1ccc(Nc2cc(C)nc3ncnn23)cc1", "activity change, negative = growth inhibition": "inactive: 0.0789%"}, {"smiles": "Cc1ccccc1NC(=O)Nc1nnc(Cc2ccc([N+](=O)[O-])cc2)s1", "activity change, negative = growth inhibition": "inactive: -10.2%"}, {"smiles": "COc1ccc(F)cc1CN1CCN(C(=O)c2ccc(S(=O)(=O)N3CCCCCC3)cc2)CC1", "Potency": "inconclusive [inhibitor, single point]"}, {"smiles": "CNCCOc1ccccc1C(C)(C)C", "Potency": "inconclusive [inhibitor, full curve, poor fit]"}, {"smiles": "Cc1nn(-c2ccccc2)c(NC(=O)c2cccs2)c(-c2ccccc2Cl)c1=O", "activity change, negative = growth inhibition": "inactive: -1.63%"}, {"smiles": "CCc1nc2ccc(C(=O)NCCc3ccc(OC)cc3OC)cc2nc1CC", "Potency": "active: 18.4 µM"}, {"smiles": "CC(=O)N1c2ccccc2C2CCCC[C@H]21", "note": "(stereo not given in full)", "Potency": "inconclusive [inhibitor, single point]"}, {"smiles": "C=CC[C@@H](CC(=O)N(CCO)Cc1ccccc1)C(=O)NCCOC(=O)[C@@H](CC=C)Cc1ccc(F)cc1", "Potency": "active: 13 µM"}, {"smiles": "Cc1ccccc1Nc1nc(N)nc(CSc2nc3ccccc3c(=O)n2C)n1", "Potency": "active: 8.2 µM"}, {"smiles": "CC1(C)CC2CC(C)(CN2C(=O)c2ccc([N+](=O)[O-])cc2)C1", "note": "(stereo not given)", "Potency": "inconclusive [inhibitor, single point]"}, {"smiles": "CCCC/C=C/c1cccc2nncn12", "Potency": "inconclusive [inhibitor, single point]"}, {"smiles": "Cn1nc(C(C)(C)C)cc1C(=O)N1CCCCC1c1cc(C(=O)Nc2cccc3c2CCCC3)no1", "note": "(stereo not given)", "Potency": "inconclusive [inhibitor, partial curve, poor fit]"}, {"smiles": "CC1CCN(S(=O)(=O)c2ccc3[nH]cc(C(=O)NCc4ccc(F)cc4)c(=O)c3c2)CC1", "activity change, negative = growth inhibition": "inactive: -12.1%"}, {"smiles": "CCc1nc2ccc(C(=O)NCCOc3ccc(OC)cc3)cn2c1N(CCN(C)C)CC1CC1", "Potency": "inconclusive [inhibitor, partial curve]"}, {"smiles": "O=S(=O)(NCC1CCCO1)c1ccc(S(=O)(=O)N(Cc2ccccn2)C2CC2)cc1", "note": "(stereo not given)", "Potency": "inconclusive [inhibitor, single point]"}, {"smiles": "O=C(CNc1cccc([N+](=O)[O-])c1)NC(=O)NC1CCCCC1", "Potency": "inconclusive [inhibitor, single point]"}, {"smiles": "COc1ccc(NC(=O)N2CCc3ccccc3C2)c(OC)c1", "activity change, negative = growth inhibition": "inactive: 4.36%"}, {"smiles": "Cc1ccc(CNC(=O)CCc2ccc(S(=O)(=O)NC3CCCCC3)cc2)cc1", "Potency": "inconclusive [inhibitor, single point]"}, {"smiles": "NC(=O)C1CCN(c2ccc(C(F)(F)F)cc2[N+](=O)[O-])CC1", "activity change, negative = growth inhibition": "inactive: -6.95%"}, {"smiles": "COC(=O)c1ccc2nc(C3CCCCC3)c3c(c2c1)CCC3", "Potency": "inconclusive [inhibitor, single point]"}, {"smiles": "CSCCC(NC(=O)COc1ccccc1)C(=O)N(C)Cc1ccc(F)cc1", "note": "(stereo not given)", "Potency": "inconclusive [inhibitor, single point]"}, {"smiles": "Cc1cc(C)nc(Nc2cccc(Cl)c2)n1", "activity change, negative = growth inhibition": "inactive: -5.85%"}, {"smiles": "O=C(COC(=O)c1n[nH]c(=O)c2ccccc12)Nc1ccccc1", "activity change, negative = growth inhibition": "inactive: -2.27%"}, {"smiles": "Cc1ccc(N2CC(O)=C(c3nc4ccccc4c(=O)[nH]3)C2=N)cc1C", "Potency": "inconclusive [inhibitor, single point]"}, {"smiles": "Cn1c(SCC(=O)Nc2cccc(C(=O)O)c2)nnc1-c1cc2cc(Br)ccc2o1", "activity change, negative = growth inhibition": "inactive: 0.36%"}, {"smiles": "CCOc1cc(OCC)cc(C(=O)Nc2cccnc2)c1", "activity change, negative = growth inhibition": "inactive: -16%"}, {"smiles": "O=C(Nc1nnc(C2=COCCO2)o1)c1ccc(Cc2ccccc2)cc1", "Potency": "inconclusive [inhibitor, single point]"}, {"smiles": "O=CN1CCN(C(=O)c2ccc3c(c2)OCO3)CC1", "activity change, negative = growth inhibition": "inactive: 17.6%"}, {"smiles": "CC(=O)N1CCc2cc(S(=O)(=O)NC(C(=O)NC(C)c3ccccc3)C(C)C)ccc21", "note": "(stereo not given)", "activity change, negative = growth inhibition": "inactive: 6.2%"}, {"smiles": "O=C(O)CC/C(=C\\c1ccc(Cl)c([N+](=O)[O-])c1)c1nc2ccccc2s1", "activity change, negative = growth inhibition": "inactive: -0.573%"}, {"smiles": "O=C1Cc2cc(S(=O)(=O)N3CCCCC3)cc3c2N1CCC3", "activity change, negative = growth inhibition": "inactive: -16%"}, {"smiles": "O=C1NC2(CCCCCC2)C(=O)N1Cc1cccc([N+](=O)[O-])c1", "Potency": "inconclusive [inhibitor, single point]"}, {"smiles": "CCNC(=S)Nc1ccc2c(c1)oc1ccccc12", "Potency": "inconclusive [inhibitor, partial curve]"}, {"smiles": "CN(C(=O)Cn1cnc2ccccc2c1=O)C1CCS(=O)(=O)C1", "note": "(stereo not given)", "activity change, negative = growth inhibition": "inactive: 4.01%"}, {"smiles": "CCN1C(=O)[C@H]2[C@@H](c3ccc(C)cc3)N[C@]3(CCCN(Cc4ccc(OC)cc4)C3=O)[C@H]2C1=O", "Potency": "inconclusive [inhibitor, partial curve]"}, {"smiles": "COC(=O)/C=C1\\SC(=Nc2ccc(Cl)c(Cl)c2)NC1=O", "activity change, negative = growth inhibition": "inactive: -7.43%"}, {"smiles": "COc1cc2[nH]c(=O)n(Cc3ccc(C(=O)NCc4ccc(C)cc4)cc3)c(=O)c2cc1OC", "Potency": "inconclusive [inhibitor, partial curve]"}, {"smiles": "CN(C(=O)c1cccc(NC(=O)Cc2ccc(NC(=O)C3CCCN(C(=O)C4CCC4)C3)cc2)c1)C1CCCC1", "note": "(stereo not given)", "Potency": "inconclusive [inhibitor, single point]"}]}]}
